Measured values as given in PubChem BioAssay AID493208 (National Center for Advancing Translational Sciences (NCATS), 2011).
Out of some 44,000 compounds screened, about 340 (0.77%) were called active. The inconclusive results got no clear call from the source; some entries with a clear call stand among them for comparison. The call rests on the fitted dose curve; in most records, active means well fitted inhibition curve with a large enough effect; inconclusive means small, poorly fitted or top-dose-only effect; inactive means flat fitted curve, though single readings scatter. Potencies of inconclusive entries are left out as doubtful fits.

assay: Acumen qHTS Assay for Inhibitors of the mTORC1 Signaling Pathway in MEF (Tsc2-/-, p53-/-) Cells: Sytravon; conditions: phospho-rpS6 immunofluorescence/PI, 24 h; series mostly up to 38.3 µM; activity change, negative = inhibition: at the top concentration; further: nearly all actives have a fitted effect of over 50% in size
From the text: NIH Molecular Libraries Probe Production Centers Network [MLPCN] NIH Chemical Genomics Center [NCGC] MLPCN Grant: NS059428-01 Assay Submitter (PI): Blenis, John; Hoffman, Greg; Harvard University NCGC Assay Overview: The mammalian target of rapamycin (mTOR) is an intracellular serine/threonine kinase Aberrant regulation of mTOR signaling plays a causative role in a number of human diseases, including cancer, benign tumors such as lymphangioleiomyomatosis (LAM) and Tuberous Sclerosis Complex (TSC), and metabolic diseases such as diabetes and obesity. This project aims to identify inhibitors of ribosomal protein S6 (rpS6) phosphorylation. The phosphorylation of rpS6 is a key event downstream of mTOR activation. The assay uses a phospho-specific antibody of phospho-rpS6 to detect inhibitors of mTOR activation. Mutations in the Tsc1 and Tsc2 genes are the underlying genetic lesions responsible for TSC, causing constitutive activation of the mTORC1 pathway and leading to profound effects on cell metabolism. Aberrant metabolism in cancer has recently received significant attention as a target to develop therapeutic agents in the treatment of cancer.1 As Tsc2-/- cells have lost the ability to respond to energy and growth factor deprivation, these cells are unable to properly down regulate cellular biosynthetic processes in response to metabolic stress, and are thus extremely sensitive to glucose deprivation-induced death.2 A central goal of this project is to explore the unique cell survival and metabolic properties of cells with Tsc1 or Tsc2 by screening for compounds that selectively target the Tsc2-/- MEFs by screening both Tsc2-/- and WT MEF cell lines. We hope to better understand these aspects of TSC physiology in order to exploit them for therapeutic benefit.
NCGC Acumen Assay Protocol Summary: For quantitative high throughput analysis of mTORC1 signaling, we developed a cell-based assay for immuno-fluorescence based detection of rpS6 phosphorylation on the Acumen Explorer that will be used a platform for the primary small molecule screen. Mouse embryonic fibroblasts (MEFs) are cultured in 1536-well plates using DMEM + 10% FBS. Twenty-four hrs after plating, test compounds (solubilized in DMSO) are delivered and incubated with the cells for 24 hrs at 37 degree Celsius. Following the incubation, media with compound is aspirated and the cells are fixed in 4% paraformaldehyde (PFA) containing PBS + 0.2% TX-100. Next, PFA is aspirated, cells are washed two times with PBS plus 0.2% TX-100 and the cells are blocked for 1 hr at room temperature (blocking buffer: LiCOR Blocking Buffer plus 0.2% TX-100). […] Cells are washed two times with PBS plus 0.2% TX-100, and stained with 10 uM propidium iodide (PI) for 20-25 minutes for cell number measurement (1:500 dilution of Hoescht staining is also added for IN Cell imaging). The plates are scanned on the Acumen Explorer laser scanning instrument (TTP Labtech) using the 488nm laser for simultaneous excitation of the Alexa-488 and PI. […] The normalized phospho-S6 staining is calculated as the ratio of the integrated Alexa 488 intensity divided by the integrated PI intensity for the single concentration rapamycin control (7.5 nM) and DMSO columns. […] Inhibition of the pathway is defined based on the normalized phospho-S6 intensity in rapamycin treated cells. Active cells are defined as those with a normalized phospho-S6 staining above this threshold, and each treatment is reported as the % positive cells in the well, where thresholds are defined by selecting wells with the highest and lowest signal and differentiating between the % non-active and % active populations. In addition to the pathway specific phospho-S6 endpoint, the number of PI stained cells from the Acumen is recorded as a measure of cell viability. The primary screen was performed with a MEF cell line in a defined genetic background, Tsc2-/-, p53-/- cell line stably transfected with an empty vector control (Tsc2-/- MEF).
Potency means the concentration at half of the fitted maximal effect; tags describe the fitted curve by direction and shape.

Structure (SMILES)	Potency	activity change, negative = inhibition
CCNC(=O)c1c(NC(=O)c2nc(S(=O)(=O)CC)ncc2Cl)sc2c1CCCC2	inconclusive [falling, partial curve, poor fit]	–
CCCOc1ccc(C(=O)Nc2ccc(NC(=O)c3ccccc3)c(C)c2)cc1	active: 13.1 µM	–
Cn1nc(C(=O)N2CCN(c3ccc(F)cc3)CC2)c2c1-c1ccccc1SC2	inconclusive [falling, single point]	–
COc1ccc(-c2csc3ncnc(Nc4cc(OC)cc(OC)c4)c23)cc1	–	inactive: 1.37%
CCC(CC)C(=O)Nc1cc(-c2nc3cccnc3s2)ccc1C	–	inactive: -6.53%
CCSc1nc2ccccc2c(OCc2cc(C(=O)OC)ccc2OC)c1C(=O)OC	inconclusive [falling, single point]	–
CCCOc1cccc(C(=O)Nc2cccc(NC(=O)c3ccc(Cl)cc3Cl)c2)c1	–	inactive: 9.75%
O=C1CCSC2(C(=O)N(Cc3ccc(F)cc3)c3ccccc32)N1c1cccc(F)c1 (centres undefined)	inconclusive [falling, full curve, poor fit]	–
Cc1ccc(CSc2nc3ccncc3n2Cc2nc(-c3ccccc3C)oc2C)cc1	–	inactive: -6.76%
COc1ccc(CNC(=O)c2sc3nc4n(c(=O)c3c2C)CCC4)cc1	inconclusive [falling, partial curve, poor fit]	–
COC(=O)c1cc(C)nc2c1c(=O)nc(SCc1ccccc1Cl)n2C1CC1	inconclusive [falling, single point]	–
COc1ccc(N2CCN(C(c3ccc(F)cc3)c3sc4nc(-c5ccco5)nn4c3O)CC2)cc1 (centres undefined)	–	inactive: -4.22%
CCc1cc(=O)[nH]c(SCc2nc(-c3ccc(C(F)(F)F)cc3)no2)n1	inconclusive [falling, partial curve, poor fit]	–
CC(=O)N1CCCC1c1nc2ccccc2n1Cc1ccccc1F (centres undefined)	inconclusive [falling, partial curve, poor fit]	–
CCOC(=O)c1ccc(NC(=O)CSc2ccc(-c3ccccn3)nn2)cc1	inconclusive [falling, single point]	–
CCN(CC)c1cc(C)c2cc(NC(=O)c3ccccc3Cl)ccc2n1	inconclusive [falling, single point]	–
CCC1CN(C(=O)NCc2ccccc2)c2cc(Cl)ccc2O1 (centres undefined)	inconclusive [falling, single point]	–
COc1ccc(OC)c(CCNC(=O)c2cc3cccc4c3n2CC(C)S4)c1 (centres undefined)	–	inactive: -6.06%
Cc1cccc(CCNC(=O)c2ccc3c(c2)nc2n3CCC(C)C2)c1 (centres undefined)	–	inactive: 4.15%
CCN(CC)CCCNc1cc(-c2ccccc2)nc(C)n1	inconclusive [falling, single point]	–
COc1ccc(-n2cc(C(=O)N(CCN(C)C)Cc3ccccc3)c3ccccc3c2=O)cc1	inconclusive [falling, single point]	–
COc1cc(C(=O)N(Cc2ccc(F)cc2)Cc2ccco2)cc(OC)c1OC	–	inactive: -2.89%

Structure (SMILES)	Potency	activity change, negative = inhibition
CCn1c(C)c(C)c2cc(C(=O)NCCCN3CCCCC3C)ccc21 (centres undefined)	inconclusive [falling, partial curve, poor fit]	–
COc1cccc(-n2c(SCc3ccc(F)cc3)nc3c([nH]c4ccccc43)c2=O)c1	inconclusive [falling, single point]	–
Cc1ccc2nc(-c3ccc(Cl)s3)c(Nc3ccc4c(c3)OCCO4)n2c1	–	inactive: 6.57%
Cc1cc(C)c(NC(=O)Cn2c(=O)n(Cc3ccc(C(=O)NCc4ccc5c(c4)OCO5)cc3)c(=O)c3ccccc32)c(C)c1	active: 5.21 µM	–
Cc1ccc(S(=O)(=O)n2nc(C)c(S(=O)(=O)N3CCCCCC3)c2C)cc1C	inconclusive [falling, partial curve, poor fit]	–
CC(C)c1ccc(NS(=O)(=O)c2cc(Br)cc3c2N(C(=O)C2CC2)CC3)cc1	inconclusive [falling, partial curve, poor fit]	–
CCCN1C(=O)C(O)(CC(=O)c2ccc(C(C)C)cc2)c2ccccc21 (centres undefined)	active: 13.1 µM	–
Cc1ccccc1C(=O)Nc1cc2c(cc1N1CCCCC1)n(C)c(=O)n2C	inconclusive [falling, partial curve, poor fit]	–
CCOC(=O)c1c(-c2ccccc2)oc2ccc(NS(=O)(=O)c3ccccc3)cc12	inconclusive [falling, partial curve, poor fit]	–
COc1ccc2c(c1)c1c(c(=O)n(-c3cccc(Cl)c3)c(=O)n1C)n2C	–	inactive: -9.85%
O=C(Cn1cc(SCc2cccc(C(F)(F)F)c2)c2ccccc21)N1CCCCCC1	inconclusive [falling, single point]	–
CCN(Cc1ccccc1)C(=O)Nc1ccc2c(c1)N(C)C(=O)c1ccccc1S2	inconclusive [falling, partial curve, poor fit]	–
Cc1ccc(C(=O)Nc2ccc3c(c2)N(C)C(=O)c2ccccc2S3)cc1F	–	inactive: -18.6%
COc1ccccc1CNC(=O)Cn1c(=O)ccc2cc(S(=O)(=O)N3CCC(C)CC3)ccc21	inconclusive [falling, partial curve, poor fit]	–
CCCCN(CC)CCCNC(=O)c1cn(CC(C)C)c(=O)c2c1c1ccccc1n2C	inconclusive [falling, single point]	–
Cc1ccc(CNC(=O)c2cc(S(=O)(=O)N3CCCC(C)C3)cn2C)cc1 (centres undefined)	inconclusive [falling, partial curve, poor fit]	–
COc1ccc(NC(=O)Cn2c(=O)n(-c3cccc(C)c3)c(=O)c3c2c2cc(C)ccc2n3C)cc1OC	inconclusive [falling, partial curve, poor fit]	–
Cc1ccc(Nc2c3c(nc4ccccc24)CCC3)cc1F	–	inactive: -3.73%
COc1ccccc1N(CC(=O)NCCSc1ccccc1)S(=O)(=O)c1ccc(C)cc1	inconclusive [falling, single point]	–
CCOc1ccc(C2=C(C(C)=O)Sc3nnc(C)n3N2C(C)=O)cc1	inconclusive [falling, single point]	–
CCc1ccc(NC(=O)C2(c3cccs3)CCOCC2)cc1	inconclusive [falling, partial curve, poor fit]	–
CCOC(=O)c1cnc2c(Cl)c(Cl)ccc2c1Nc1ccc(N(C)C)cc1	inconclusive [falling, single point]	–

Structure (SMILES)	Potency	activity change, negative = inhibition
O=S(=O)(c1ccccc1)n1nc(-c2ccc(Cl)cc2)nc1NCc1ccc(F)cc1	inconclusive [falling, partial curve, poor fit]	–
CCS(=O)(=O)c1c(S(=O)(=O)CC)c2cc(C(C)(C)C)ccn2c1C(=O)c1ccc(F)cc1	inconclusive [falling, single point]	–
Cc1ccc(NC(=O)C2CCCN2S(=O)(=O)c2ccc3c(c2)n(C)c(=O)c(=O)n3C)cc1 (centres undefined)	–	inactive: -12%
O=C(NCCc1csc(-c2ccc(C(F)(F)F)cc2)n1)c1ccccc1Cl	–	inactive: -26%
Cc1c(C(=O)Nc2cccc(F)c2)oc2c1-c1nn(Cc3c(F)cccc3Cl)cc1CC2	inconclusive [falling, single point]	–
Cc1c(Cl)cccc1NC(=O)NCc1c(-n2cccc2)sc2c1CCCC2	inconclusive [falling, partial curve, poor fit]	–
O=C(Nc1nc2c(F)cc(F)cc2s1)c1ccc2c(c1)OCCO2	–	inactive: 0%
Cc1cccc(NC(=O)c2sc3nc4c(cc3c2N)CCCCCC4)c1C	inconclusive [falling, full curve, poor fit]	–
Cc1ccccc1Nc1c(-c2cccc(N(C)C)c2)nc2ccc(Br)cn12	inconclusive [falling, partial curve, poor fit]	–
CCN(c1ccccc1)C(CNS(=O)(=O)c1ccccc1)c1ccccc1 (centres undefined)	–	inactive: -0.684%
COc1cc(C(=O)CC2(O)C(=O)N(Cc3ccccc3Cl)c3ccccc32)cc(OC)c1OC (centres undefined)	active: 4.14 µM	–
Cc1nnc(NC(=O)CSc2nc3c([nH]c4ccccc43)c(=O)n2-c2ccccc2)s1	–	inactive: 0.169%
O=C(Cn1cc(SCc2ccc(C(F)(F)F)cc2)c2ccccc21)N1CCCCCC1	inconclusive [falling, partial curve, poor fit]	–
CCc1ccc(NC(=O)C2CCC(CNS(=O)(=O)c3ccc4c(c3)CC(C)N4C(C)=O)CC2)cc1 (centres undefined)	inconclusive [falling, full curve, poor fit]	–
COc1ccc(NC(=O)CSc2nncn3c2cc2oc(C)cc23)cc1OC	inconclusive [falling, single point]	–
Cc1nc(-c2cccc(NC(=O)Nc3ccc([N+](=O)[O-])cc3)c2)no1	inconclusive [falling, partial curve, poor fit]	–
CCCN1C(=O)c2[nH]nc(-c3ccccc3O)c2C1c1ccc(OCc2ccccc2)c(OC)c1 (centres undefined)	inconclusive [falling, single point]	–
Nc1ccc(N2CCN(c3ncc(C(F)(F)F)cc3Cl)CC2)c(C(F)(F)F)c1	inconclusive [falling, single point]	–
O=C(NCc1ccc(Cl)cc1)C(=O)NCC(c1cccs1)S(=O)(=O)c1cccs1 (centres undefined)	inconclusive [falling, single point]	–
COc1ccc(Nc2cc(C(=O)NCCCN3CCN(c4ccc(OC)cc4)CC3)c3ccccc3n2)cc1	inconclusive [falling, single point]	–
